Laboratory results reported in PubChem BioAssay AID1476 (National Center for Advancing Translational Sciences (NCATS), 2009).
Several values for one entry are separate records, joined by “and”; a condition that tells them apart may be missing. Equal values may be shown once. The whole screen tested about 200,000 compounds, of which about 4,500 (2.2%) were called active. This list was built around the results that the source calls inconclusive (neither active nor inactive); the mix of calls is not that of the screen. Calls follow the shape of the dose curve; as a rule, active = well fitted inhibition curve with a large enough effect; inconclusive = small, poorly fitted or top-dose-only effect, or effect the other way; inactive = flat fitted curve, though single readings scatter. A potency beside an inconclusive call is a rough fit, not a confirmed value.

biological target: Cruzipain (Trypanosoma cruzi) (UniProt P25779); experiment: qHTS Assay for Promiscuous and Specific Inhibitors of Cruzain (without detergent); conditions: purified cruzain, Z-FR-AMC fluorescence, no detergent; also: nearly all actives have a fitted effect of over 40% in size;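 as to max response, negative = inhibition: plate controls were enzyme without inhibitor for no effect and buffer without enzyme for full effect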
Outline: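 Purified cruzain at 1.5 nM, pre-incubated 15 min with compound at room temperature in 100 mM sodium acetate pH 5.5, 5 mM DTT, 0.00005% Triton X-100. Reaction started with 2 uM Z-FR-AMC; AMC fluorescence increase over 60 s gives rate.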
Potency is read from the fitted curve at half-maximal effect; tags tell the direction and shape of the fitted curve.

UniProt P25779, sequence (P25779 whole entry, looked up): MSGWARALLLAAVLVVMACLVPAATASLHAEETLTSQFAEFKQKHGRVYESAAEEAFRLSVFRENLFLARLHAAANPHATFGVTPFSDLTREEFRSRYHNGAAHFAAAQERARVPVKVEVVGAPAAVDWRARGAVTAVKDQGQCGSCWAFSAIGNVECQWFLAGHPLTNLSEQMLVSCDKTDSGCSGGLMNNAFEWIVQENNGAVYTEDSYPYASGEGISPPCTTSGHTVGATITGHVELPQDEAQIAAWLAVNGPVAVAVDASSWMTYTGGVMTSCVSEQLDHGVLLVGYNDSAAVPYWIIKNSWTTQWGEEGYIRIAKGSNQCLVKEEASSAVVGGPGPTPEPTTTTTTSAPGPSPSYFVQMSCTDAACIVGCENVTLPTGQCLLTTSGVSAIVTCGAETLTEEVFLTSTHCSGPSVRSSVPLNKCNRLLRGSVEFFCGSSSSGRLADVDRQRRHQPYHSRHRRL

| Structure (SMILES) | Potency | max response, negative = inhibition |
| --- | --- | --- |
| O=C(Cc1ccccc1)Nc1ccc(N2CCCC2)cc1 | active: 12.6 µM |  |
| Cn1c(=O)c2c(c3ccccc31)OC(=O)CC2c1ccc(C(F)(F)F)cc1 (stereo not given) |  | inactive: 25.9% |
| CCC(=O)Nc1ccc(NC(=O)CSc2nc3cc4c(cc3cc2C)CCC4)cc1 | active: 25.1 µM |  |
| Cn1c(=O)c2c(-c3ccccc3)n3c(c2n(C)c1=O)C(c1ccccc1[N+](=O)[O-])Nc1ccccc1-3 (stereo not given) |  | inactive: -14.3% |
| O=C(Cn1cnc2cc([N+](=O)[O-])ccc2c1=O)Nc1ccc2c(c1)CCC2 | active: 15.8 µM |  |
| Cc1ccc(S(=O)(=O)NC2=C(N3CCN(c4ccccc4F)CC3)C(=O)c3ccccc3C2=O)cc1 | inconclusive: 20 µM [inhibitor, partial curve, poor fit] |  |
| CNC(=S)N1N=C(c2ccc(C)cc2)CC1c1ccc(Br)cc1 (stereo not given) | active: 2.51 µM |  |
| CCc1c(C)sc2c1CCN(C(=O)Nc1cc(OC)c(OC)c(OC)c1)C2c1ccccc1 (stereo not given) | inconclusive: 31.6 µM [activator, single point] |  |
| O=C(COc1ccc2c(C(F)(F)F)cc(=O)oc2c1)NCc1cccs1 |  | inactive: -15.2% |
| CCOC(=O)c1c(C)n(C)c2ccc(OCC(O)CN3C(=O)c4ccccc4S3(=O)=O)cc12 (stereo not given) | inconclusive: 31.6 µM [activator, single point] |  |
| COc1ccc(-c2cc(C(F)(F)F)nc(SCC(=O)Nc3sc4c(c3C#N)CCC4)n2)cc1 | active: 12.6 µM |  |
| O=C(CCCCCn1c(=O)c2sccc2n(CC(=O)Nc2cccc(Cl)c2)c1=O)NCc1ccc2c(c1)OCO2 |  | inactive: -19.5% |
| Cc1cccc(C(C)C)c1NC(=O)COC(=O)c1cccc(S(=O)(=O)N2CCc3ccccc3C2)c1 | active: 25.1 µM |  |
| CCOC(=O)Cc1ccc(NC(=O)Nc2cccc(OCc3cc(=O)n4cc(C)ccc4n3)c2)cc1 |  | inactive: -10.8% |
| Oc1c(C(c2ccccc2)N2CCC3(CC2)OCCO3)sc2nc(-c3ccco3)nn12 (stereo not given) |  | inactive: 22.3% |
| COc1cccc(CNc2ccc3c(c2)CCC3)c1 | inconclusive: 25.1 µM [inhibitor, single point] |  |
| COc1ccccc1NS(=O)(=O)c1cccc2cccnc12 |  | inactive: 6.04% |
| CCCC(c1nnnn1C(C)(C)CC)N(CCCO)Cc1cc2cc(C)cc(C)c2[nH]c1=O (stereo not given) | inconclusive: 31.6 µM [activator, single point] |  |
| CCCCCSc1nc2c(c(=O)[nH]c(=O)n2C)n1CCc1ccccc1 | inconclusive: 39.8 µM [inhibitor, single point] |  |
| Nc1cc(-c2ccc(Cl)cc2)nn1S(=O)(=O)c1cccc2nsnc12 | inconclusive: 39.8 µM [inhibitor, single point] |  |
| CCn1nc(C(=O)OC(C(=O)c2c[nH]c3ccccc23)c2ccccc2)c2ccccc2c1=O (stereo not given) | inconclusive: 31.6 µM [inhibitor, single point] |  |
| Cc1nn(S(=O)(=O)c2ccc(Cl)cc2)c(C)c1Sc1ccc([N+](=O)[O-])cc1 | inconclusive: 39.8 µM [inhibitor, single point] |  |

| Structure (SMILES) | Potency | max response, negative = inhibition |
| --- | --- | --- |
| Oc1ccc(Cl)cc1-c1cc(C(F)(F)C(F)F)nc(-c2ccccc2)n1 | inconclusive: 3.16 µM [inhibitor, partial curve, poor fit] |  |
| Cc1ccc(CC(=O)OCC(=O)NC2CCCC(C)C2C)cc1C (stereo not given) | inconclusive: 31.6 µM [activator, single point] |  |
| O=C(O)c1cccc(Cl)c1Cl |  | inactive: 3.74% |
| N#CC1=C(N)SC(N)=C(C#N)C1CCC1CCCCC1 | inconclusive: 31.6 µM [inhibitor, single point] |  |
| O=C1CC(N2CCN(c3nc4ccccc4s3)CC2)C(=O)N1c1cccc(F)c1 (stereo not given) | inconclusive: 25.1 µM [activator, single point] |  |
| Cc1ccc(S(=O)(=O)c2nc(-c3cccs3)oc2N2CCCCC2)cc1 |  | inactive: 3.47% |
| Cc1ccc(S(=O)(=O)C(CCC(=O)N2CCOCC2)S(=O)(=O)c2ccc(C)cc2)cc1 | inconclusive: 31.6 µM [activator, single point] |  |
| Cc1c(Cl)cccc1NS(=O)(=O)c1ccc2[nH]cc(C(=O)NC3CCCC3)c(=O)c2c1 | inconclusive: 31.6 µM [inhibitor, single point] |  |
| COC(=O)[C@@]1(Cc2ccccc2)[C@H]2c3cc(C(=O)N(C)C)[nH]c3C[C@H]2CN1C(=O)c1ccccc1 | inconclusive: 20 µM [activator, partial curve] |  |
| Cc1ccccc1C(=O)Nc1ccccc1C(=O)OCc1cc(=O)n2ccsc2n1 |  | inactive: 18.1% |
| Cc1cc(C)c(Cn2c3ccccc3c3cnn(CC(=O)N4CCCCC4)c(=O)c32)c(C)c1 | inconclusive: 31.6 µM [inhibitor, single point] |  |
| CCOC(=O)c1c(S(=O)(=O)N2CCC(C(=O)Nc3ccccc3OC)CC2)c(C)n(CC)c1C | inconclusive: 39.8 µM [activator, single point] |  |
| CC1=C(C(=O)OCc2ccccc2)C(c2ccc(Cl)cc2Cl)NC(=O)N1CCCCCC(=O)O (stereo not given) | inconclusive: 31.6 µM [activator, single point] |  |
| C/C(=C\c1ccccc1)CN(C)CCN(C)C |  | inactive: -8.52% |
| CN1CCN(c2ccc(NC(=O)CSc3ccccc3)cc2F)CC1 |  | inactive: -1.01% |
| COc1cccc(CNC(=O)CCn2c(=O)c3cccn3c3ccc(F)cc32)c1OC |  | inactive: 1.93% |
| CCOC(=O)/C=c1\s/c(=C\c2c(OCC)ccc3ccccc23)c(=O)n1CC(=O)NCC1CCCO1 (stereo not given) | inconclusive: 39.8 µM [activator, single point] |  |
| CCCCOc1ccc(CNC(=O)CN2CCSc3ccccc32)cc1 | inconclusive: 39.8 µM [activator, single point] |  |
| O=S(=O)(c1ccc(Br)cc1)c1nc(-c2ccco2)oc1SCc1ccccc1Cl |  | inactive: 10.9% |
| COC(=O)c1ccc(C(NC(=O)OCc2ccccc2)/C(=C/[C@@H](C)C(=O)N[C@@H](CO)Cc2ccccc2)c2cccnc2)cc1 (stereo not given in full) | inconclusive: 39.8 µM [activator, single point] |  |
| Cc1cccc(NC(=O)CSc2nc3c([nH]c4ccccc43)c(=O)n2-c2ccc(F)cc2)c1C |  | inactive: 18% |
| O=C(NCc1ccco1)c1cccn2c(=O)c3cc4ccccc4cc3nc12 | inconclusive: 20 µM [activator, single point] |  |

| Structure (SMILES) | Potency | max response, negative = inhibition |
| --- | --- | --- |
| O=C1CC(c2ccc3c(c2)OCO3)c2cc(O)ccc2O1 (stereo not given) |  | inactive: -11.4% |
| O=c1c(/C=C(\O)c2ccccc2)nc2ccccc2n1-c1ccccc1 | inconclusive: 31.6 µM [inhibitor, single point] |  |
| COc1ccc(/C=C(\C#N)C(=O)OCC(=O)NCc2ccc(Cl)cc2)cc1 | inconclusive: 39.8 µM [inhibitor, single point] |  |
| Nc1cc(-c2nc3ncccc3o2)ccc1Cl |  | inactive: -12.9% |
| COC(=O)[C@@]1(Cc2ccc(OC)cc2)[C@H]2c3cc(C(=O)N4CCCC4)n(CCO)c3C[C@H]2CN1C(=O)c1ccccc1 | inconclusive: 25.1 µM [activator, partial curve] and inconclusive: 20 µM [activator, partial curve] |  |
| O=C(NCCc1ccc(Cl)cc1)c1cccn1-c1nnc(N2CCCC2)s1 |  | inactive: -4.98% |
| N#CCOc1ccc(C2=NO[C@@H]3[C@@H]4C[C@@H]([C@H]5C(=O)N(c6ccc7c(c6)OCO7)C(=O)[C@@H]45)[C@H]23)cc1 | inconclusive: 39.8 µM [inhibitor, single point] |  |
| Cc1ccc(-n2nc(C)c3nc(CCC(=O)Nc4ccc(F)cc4)c(=O)n(C)c32)cc1 |  | inactive: -0.868% |
| Clc1cccc(N=C2NN=C(c3ccc4c(c3)OCCO4)CS2)c1 | active: 10 µM |  |
| CCOc1ccccc1NS(=O)(=O)c1ccc2oc(=O)c3ncn(C)c3c2c1 |  | inactive: -2.15% |
| CCOc1ccccc1N(C)C(=O)NCc1noc2ccccc12 |  | inactive: -6.45% |
| COc1ccccc1N1CCN(CC(=O)Nc2ccc(Cl)c(C(F)(F)F)c2)CC1 | inconclusive: 31.6 µM [activator, single point] |  |
| O=C(COc1ccccc1)Nc1nc(-c2ccc(S(=O)(=O)N3CCOCC3)cc2)cs1 | inconclusive: 25.1 µM [inhibitor, single point] |  |
| O=c1c2oc3ccccc3c2n(Cc2cccc(C(F)(F)F)c2)c(=O)n1Cc1ccc2c(c1)OCO2 |  | inactive: -6.68% |
| COC(=O)Cc1ccc(N(Cc2ccccc2F)S(=O)(=O)c2ccc(C)cc2)cc1 | inconclusive: 39.8 µM [inhibitor, single point] |  |
| CC(C)(C)c1ccc2c(c1)OC(C(=O)N/N=C\c1ccccn1)CO2 (stereo not given) | inconclusive: 39.8 µM [activator, single point] |  |
| COc1cc(NS(=O)(=O)c2ccc(NC(=O)COc3ccc(C)cc3C)cc2)nc(OC)n1 | inconclusive: 25.1 µM [activator, partial curve] |  |
| Cc1ccc(-c2[nH]ncc2/C=N/n2c(COc3ccccc3C)nc3ccccc3c2=O)cc1 | inconclusive: 39.8 µM [inhibitor, single point] |  |
| Cc1ccc(NC(=O)CSc2nc(C)cc(C)c2C(=O)Nc2cccc(C)c2)cc1 |  | inactive: 11.3% |
| COC(=O)c1c(C)c2c(C)cc3ccccn3c-2c1C(=O)OC | inconclusive: 31.6 µM [activator, single point] |  |
| CCOC(=O)c1cccc(NC(=O)c2cc(-c3ccc(Cl)s3)nc3ccccc23)c1 |  | inactive: -7.74% |
